# Measured values: article PMC6212790
# The other results are listed elsewhere or left out. At the low end of the ranking the order means little.
# Biological target: T1, GST-Rok (full length) (UniProt O34857)
# T1 sequence: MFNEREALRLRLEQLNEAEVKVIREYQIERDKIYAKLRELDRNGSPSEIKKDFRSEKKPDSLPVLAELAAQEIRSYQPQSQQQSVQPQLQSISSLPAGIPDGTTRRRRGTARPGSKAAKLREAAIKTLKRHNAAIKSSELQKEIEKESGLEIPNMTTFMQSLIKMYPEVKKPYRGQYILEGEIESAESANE
# Assay: protein binding microarray;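 further: rank score from −0.5 (least bound) to 0.5 (best bound)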
# Conditions: Rok is a gene silencer of Bacillus subtilis; high values mean tight binding; most listed sequences are background and not binding sites; double strand, one strand shown
row,Sequence,binding signal
1,ATTCCTAG,0.0654 E-score
2,ACAGCTCA,-0.0199 E-score
3,AAGAGTGT,0.0141 E-score
4,GATTTTCA,-0.0835 E-score
5,CAGCGCAC,-0.0964 E-score
6,GTCCGTCA,-0.0558 E-score
7,ACCGATTG,-0.0493 E-score
8,ACTCAAGT,0.0198 E-score
9,CCAGAAGG,-0.262 E-score
10,CTGGCAGA,-0.0653 E-score
11,AGACGGTG,-0.0582 E-score
12,AGAGCACG,-0.225 E-score
13,AGCAACAG,0.0925 E-score
14,GAGTTATA,0.222 E-score
15,TCTAGAGA,-0.0342 E-score
16,ATATCTAC,0.393 E-score
17,CGGCCGTC,-0.256 E-score
18,AGCGGAAG,-0.039 E-score
19,AATACAGA,0.0991 E-score
20,AACATACA,0.355 E-score
21,AGAGTAAG,0.19 E-score
22,CGACAACA,0.0732 E-score
23,ACGTCACA,-0.0872 E-score
24,ACTGTATA,0.314 E-score
25,CCTCTAAG,-0.231 E-score

row,Sequence,binding signal
1,TAAGAGTA,0.209 E-score
2,GAAAGGCA,-0.2 E-score
3,ACAACAAC,-0.0116 E-score
4,CGACCGTA,-0.0287 E-score
5,AAACGGGC,-0.108 E-score
6,CTCGATCA,-0.142 E-score
7,AGCCTAAG,-0.0976 E-score
8,CGGTCATA,0.117 E-score
9,CCGCAACC,-0.0987 E-score
10,AAAATAGG,0.158 E-score
11,GGGGGTGA,-0.338 E-score
12,AAATCGAC,0.0627 E-score
13,AAAAACGC,0.0552 E-score
14,ACAGCGCG,-0.0229 E-score
15,TGCGACCA,-0.0775 E-score
16,AGTGAGAA,0.0651 E-score
17,AGATATTG,0.196 E-score
18,GGGTAATA,0.234 E-score
19,ATATCCAC,0.161 E-score
20,ATTTCTTG,-0.159 E-score
21,CGATCGCA,-0.0648 E-score
22,ACTCCGCG,-0.031 E-score
23,CTGGCGAC,-0.187 E-score
24,AGTGGAGC,-0.164 E-score
25,CCAAACAA,-0.185 E-score

row,Sequence,binding signal
1,TTCTAAAA,0.0214 E-score
2,ACTCCCGG,-0.257 E-score
3,AATCTGCA,-0.0122 E-score
4,AGATCGCA,-0.164 E-score
5,AACAGCAC,-0.322 E-score
6,AGCTACTC,0.0629 E-score
7,GAATTTCA,0.0434 E-score
8,CTGCGGCC,-0.43 E-score
9,AGGCAGTA,0.206 E-score
10,AAGTACGT,0.254 E-score
11,ACGTCTAC,-0.0183 E-score
12,CCGACGGA,-0.223 E-score
13,AAGCAATA,0.178 E-score
14,CAAGCCTA,-0.112 E-score
15,CGCCCCGA,-0.277 E-score
16,GGTTTGCA,0.106 E-score
17,TACGTGGA,-0.116 E-score
18,TTCAACAA,0.0149 E-score
19,GGATAGAA,0.171 E-score
20,GACTAGAA,0.15 E-score
21,CCGATCAA,-0.0532 E-score
22,AAAGGTTC,-0.0954 E-score
23,GGTAAGTA,0.19 E-score
24,TAGGCCCA,-0.208 E-score
25,AGCAATTA,0.298 E-score

row,Sequence,binding signal
1,ACAATTGA,0.124 E-score
2,AGTCTCTG,-0.0485 E-score
3,AAGACAAG,-0.0341 E-score
4,ACCTACCC,-0.0185 E-score
5,TATCCTAA,0.187 E-score
6,AACTTAGG,-0.0144 E-score
7,ACACAGTC,0.00717 E-score
8,GCACCTAA,-0.0517 E-score
9,CAGTAGAC,-0.15 E-score
10,ACCTCGCT,-0.161 E-score
11,AGTGTTAC,0.173 E-score
12,CCCAGTGC,-0.292 E-score
13,AGCCAAGA,-0.126 E-score
14,GGCGTTAA,-0.174 E-score
15,AGCCCCCT,-0.5 E-score
16,ATGGGTTA,0.18 E-score
17,CAGCGCCC,-0.336 E-score
18,CCGGACGC,-0.271 E-score
19,CCAAATCG,-0.0877 E-score
20,CCCCTCCC,-0.375 E-score
21,GAGATCAC,-0.09 E-score
22,CGGCGTGC,-0.274 E-score
23,GTCTCCCA,-0.324 E-score
24,AACTAAGT,0.232 E-score
25,ATCGAAAT,0.357 E-score

row,Sequence,binding signal
1,CTTTGGTA,0.1 E-score
2,CGTTTATC,0.177 E-score
3,AAGCAGAC,-0.0465 E-score
4,CCCCGACA,-0.208 E-score
5,CCGGCAGG,-0.295 E-score
6,CATAGCAG,0.0382 E-score
7,AATGAAGG,-0.0948 E-score
8,ACATGATG,0.000516 E-score
9,CGCTCAAA,-0.0792 E-score
10,AAACCACT,-0.00242 E-score
11,GTTCGAGA,0.0784 E-score
12,CCTAGAAC,-0.007 E-score
13,CGGGGGAA,-0.378 E-score
14,GAGGTAGC,-0.0251 E-score
15,GCACAACC,-0.0983 E-score
16,AACGAGCC,-0.116 E-score
17,ATCAACTA,0.322 E-score
18,CAGTTTAG,0.106 E-score
19,AGAGTTGG,-0.0223 E-score
20,CGAACGTC,-0.21 E-score
21,CTGCACCA,-0.0718 E-score
22,ATAGTGTC,0.113 E-score
23,GCACGACA,-0.0532 E-score
24,GTTACGGA,-0.133 E-score
25,GTAACCAC,0.127 E-score

row,Sequence,binding signal
1,ACCGGAGA,0.0649 E-score
2,CCGGTACA,-0.0865 E-score
3,CCTTAGTC,-0.116 E-score
4,AGTGGCGA,0.0254 E-score
5,ATTAATGG,0.0209 E-score
6,CGACGGGA,-0.275 E-score
7,CGAACGCG,-0.0528 E-score
8,AATTCTGC,0.157 E-score
9,GAAAACTC,-0.114 E-score
10,ACCCCTTA,-0.233 E-score
11,GTCATGGA,0.0816 E-score
12,AGCTGAAT,-0.113 E-score
13,CGCCGGAC,-0.314 E-score
14,ACCGAACG,-0.154 E-score
15,CAGAGACC,-0.235 E-score
16,TGGTACAA,0.244 E-score
17,CTAGCTTA,0.26 E-score
18,CACCCCAA,-0.151 E-score
19,GGTTCAAC,-0.214 E-score
20,ACGTTCAC,0.0408 E-score
21,CCGTTCCC,-0.3 E-score
22,AAGGTTGC,-0.215 E-score
23,TGCAGGAA,0.0814 E-score
24,CTCATCTA,0.0678 E-score
25,CCTCGCCC,-0.239 E-score

row,Sequence,binding signal
1,CGCCTCAA,-0.22 E-score
2,GCAGCTGA,-0.238 E-score
3,AATATCTG,0.268 E-score
4,CCGGCTAA,-0.121 E-score
5,TGGGCGAA,-0.103 E-score
6,ACAAATGG,0.155 E-score
7,CTGTGTAA,0.129 E-score
8,CACGCTCA,-0.099 E-score
9,AGCATCCA,-0.0796 E-score
10,CTTAGACC,-0.171 E-score
11,AGCGTACT,0.0975 E-score
12,AAAGAGCA,-0.282 E-score
13,CCAGAGTA,-0.125 E-score
14,AGGTGCAA,0.0285 E-score
15,AGATACGC,0.136 E-score
16,AACTCTAG,0.0553 E-score
17,GGCAAAAC,-0.0301 E-score
18,GGAAAGGA,-0.0983 E-score
19,CTCAGGTC,-0.312 E-score
20,GGTGGCAC,-0.0634 E-score
21,CTACCCTC,-0.104 E-score
22,ACGTTAGC,-0.0213 E-score
